Five molecules from publication PMC11879013 can be followed below.

Chains of the proteins cited; added tags and fusions are not shown. Lines headed by an entry give the natural chain unless they say otherwise; changes in a name come on top.
UniProt P19793: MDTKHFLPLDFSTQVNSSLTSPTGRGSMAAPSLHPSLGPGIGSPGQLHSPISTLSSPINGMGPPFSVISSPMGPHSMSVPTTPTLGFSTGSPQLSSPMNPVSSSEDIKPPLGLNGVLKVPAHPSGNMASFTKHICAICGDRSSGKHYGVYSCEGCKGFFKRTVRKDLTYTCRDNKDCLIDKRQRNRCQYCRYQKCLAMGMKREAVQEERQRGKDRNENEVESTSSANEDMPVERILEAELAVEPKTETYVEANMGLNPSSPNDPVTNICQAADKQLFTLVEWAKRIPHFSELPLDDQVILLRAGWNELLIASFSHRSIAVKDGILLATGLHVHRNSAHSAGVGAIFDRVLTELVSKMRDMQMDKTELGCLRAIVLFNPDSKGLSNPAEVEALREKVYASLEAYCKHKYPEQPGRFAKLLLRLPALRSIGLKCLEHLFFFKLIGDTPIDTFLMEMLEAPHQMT

Assay [1] deals with SmBIT-RXRα-FLAG, split luciferase fusion (human) (UniProt P19793). In words: split reporter; NanoBiT split luciferase in live HEK293T; N-terminal LgBIT and SmBIT fusions, 50 ng each; Nano-Glo Live Cell Assay; cells treated with HX531 (up to 4 uM) in Figure 2B and Supplementary Figure S2E.
Assay [2] deals with RXRα-FLAG (retinoid X receptor α) (human) (UniProt P19793). In words: co-IP; nuclear extracts of HEK293T co-transfected with FXRα2-MycTwinstrep (wt, L434R or L415R) and RXRα-FLAG; NaCl set to 0.1 M; 1 ug rabbit anti-RXRα (sc-553) overnight at 4°C, G-Sepharose beads; western blot. On the technique in general: Immunoblotting shows a protein as a band on a membrane.
For assay [3], the target named is RXRα, in vitro translated (human) (UniProt P19793). In words: native gel or EMSA; supershift with antibodies against FXR or RXRα on the 32P-labelled IR-1 DNA probe; in vitro translated FXRα2 and RXRα; 20 mM HEPES pH 7.4, 10% glycerol, 50 mM KCl, 1 mM DTT; 4% polyacrylamide gel. (A gel shift assay detects complexes by their altered migration in electrophoresis.)
For assay [4] the target is unchanged. In words: condition: only in the complex on the ER-2 DNA probe; native gel or EMSA; supershift with antibodies against FXR or RXRα on the 32P-labelled ER-2 DNA probe; in vitro translated FXRα2 and RXRα; 20 mM HEPES pH 7.4, 10% glycerol, 50 mM KCl, 1 mM DTT; 4% polyacrylamide gel.

Positions count from the first letter of the chain named. Names may count otherwise. No constants are given. Whether binding was seen depends on the method and setting. For part of these data: Binding seen in cells or lysates may run through a third protein. Some results given as binding are weak or reduced against the parent protein; the word gives no strength. For part of these data: Tags and fused reporters may be left off the sequences shown.

In the case of “SmBIT-RXRα-FLAG, split luciferase fusion (from UniProt P19793-1 1-462)”, the binding result in assay [1] is recorded as “binds”.

B1: FXRα2-MycTwinstrep (farnesoid X receptor isoform α2, wild type) (protein, UniProt Q96RI1-2 1-472)
chain: MGSKMNLIEHSHLPTTDEFSFSENLFGVLTEQVAGPLGQNLEVEPYSQYSNVQFPQVQPQISSSSYYSNLGFYPQQPEEWYSPGIYELRRMPAETLYQGETEVAEMPVTKKPRMGASAGRIKGDELCVVCGDRASGYHYNALTCEGCKGFFRRSITKNAVYKCKNGGNCVMDMYMRRKCQECRLRKCKEMGMLAECLLTEIQCKSKRLRKNVKQHADQTVNEDSEGRDLRQVTSTTKSCREKTELTPDQQTLLHFIMDSYNKQRMPQEITNKILKEEFSAEENFLILTEMATNHVQVLVEFTKKLPGFQTLDHEDQIALLKGSAVEAMFLRSAEIFNKKLPSGHSDLLEERIRNSGISDEYITPMFSFYKSIGELKMTQEEYALLTAIVILSPDRQYIKDREAVEKLQEPLLDVLQKLCKIHQPENPQHFACLLGRLTELRTFNHHHAEMLMSWRVNDHKFTPLLCEIWDVQ
For the molecule B1, the binding entry in assay [2] is listed as “binds”.

B2: FXRα2, in vitro translated (protein, UniProt Q96RI1-2 1-472)
chain: B1 chain
Consider B2, for which the binding entry is “binds” in assay [3] and “no binding” in assay [4].

B3: FXRα2^L434R-MycTwinstrep (protein, UniProt Q96RI1-2 1-472)
chain: B1 chain with L434R
With B3, the binding result in assay [2] is given as “no binding”.

B4: FXRα2^L415R-MycTwinstrep (protein, UniProt Q96RI1-2 1-472)
chain: B1 chain with L415R
On to B4, for which the binding result in assay [2] is recorded as “no binding”.
